Publication PMC2694982
Results are given in words; binding and its absence hold for the method and conditions named. For some assays here: Binding seen in cells or lysates may run through a third protein. For some assays here: Sequences can lack the tags named with a protein. Some entries that bind do so weakly or less than the wild type. Each block holds one molecule with its values, some of them ahead of it.

Amino acid sequences for entries named in this document (tags omitted). Residues count along the entry.
UniProt P20649, residues 837-949: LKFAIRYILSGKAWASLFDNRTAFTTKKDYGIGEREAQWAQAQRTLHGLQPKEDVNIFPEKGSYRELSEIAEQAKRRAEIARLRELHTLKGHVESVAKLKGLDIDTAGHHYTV

What was measured:
[1] = target: T1, pGBKT7-RIN4 (Arabidopsis thaliana) (UniProt Q8GYN5); test: two-hybrid; Matchmaker system (Clontech), yeast AH109; RIN4 in pGBKT7 (BD), AHA fragments in pGADT7 (AD); growth on SD lacking leucine, tryptophan and histidine
T1 sequence: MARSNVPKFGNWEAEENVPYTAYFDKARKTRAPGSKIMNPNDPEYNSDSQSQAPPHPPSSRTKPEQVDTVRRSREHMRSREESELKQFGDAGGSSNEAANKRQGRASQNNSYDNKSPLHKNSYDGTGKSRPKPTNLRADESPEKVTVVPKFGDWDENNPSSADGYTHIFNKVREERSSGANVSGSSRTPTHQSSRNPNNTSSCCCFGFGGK

[2] = target: T1, pGBKT7-RIN4 (Arabidopsis thaliana); test: two-hybrid; Matchmaker system, yeast AH109, beta-galactosidase (lacZ) reporter (unpublished data)
[3] = target: T2, AUX1-cCFP (Arabidopsis thaliana) (UniProt Q96247); test: split reporter; BiFC with nYFP and cCFP fusions transiently co-expressed in N. benthamiana leaves; YFP fluorescence by confocal microscopy 24-48 h after infiltration
T2 sequence: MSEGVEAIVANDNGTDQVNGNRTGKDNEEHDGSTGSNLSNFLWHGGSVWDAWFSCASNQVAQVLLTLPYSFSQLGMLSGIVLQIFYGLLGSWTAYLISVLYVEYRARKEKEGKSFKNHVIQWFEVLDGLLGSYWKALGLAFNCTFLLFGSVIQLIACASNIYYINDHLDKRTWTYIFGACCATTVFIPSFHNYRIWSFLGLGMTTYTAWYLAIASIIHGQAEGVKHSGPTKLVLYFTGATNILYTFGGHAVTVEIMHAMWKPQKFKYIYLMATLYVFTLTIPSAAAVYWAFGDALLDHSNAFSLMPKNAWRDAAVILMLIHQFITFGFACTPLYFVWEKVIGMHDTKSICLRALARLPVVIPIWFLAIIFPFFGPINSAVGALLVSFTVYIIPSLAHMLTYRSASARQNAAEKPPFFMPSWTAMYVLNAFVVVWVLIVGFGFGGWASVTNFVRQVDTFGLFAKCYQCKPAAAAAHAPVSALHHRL

- binding [1]: binds weakly
- binding [2]: binds weakly
Molecule: pGADT7-AHA1(837-950) (from UniProt P20649 837-949) (domain or fragment)

- binding [3]: no binding
B1: RIN4 BiFC fusion (cCFP-RIN4 or nYFP-RIN4) (protein, UniProt Q8GYN5 1-211)
chain: T1 sequence

- binding [1]: binds weakly
- binding [2]: binds weakly
B2: pGADT7-AHA2(837-949) (domain or fragment, UniProt P19456 837-948)
chain: FKFAIRYILSGKAWLNLFENKTAFTMKKDYGKEEREAQWALAQRTLHGLQPKEAVNIFPEKGSYRELSEIAEQAKRRAEIARLRELHTLKGHVESVVKLKGLDIETPSHYTV
